Test results published in PubChem BioAssay AID256 (DTP/NCI, 2004).
Where “and” joins values, the source holds several entries; their conditions need not be identical. Identical values can stand only once. The source gives many values for each of these; only a part stands here. Inconclusive results and toxic doses are left out.

Test system: CD2F1 mice, L1210 leukemia ip, survival T/C
Test: NCI In Vivo Anticancer Drug Screen. Data for tumor model L1210 Leukemia (intraperitoneal) in CD2F1 (CDF1) mice
Conditions: endpoint: mean survival time, higher = longer survival
Method in brief: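 Vehicle-treated tumor-bearing mice served as controls (C) for compound-treated mice (T). Reported figure is T divided by C.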

Q: What does the source list for `Nc1ncn(C2OC(CO)C(O)C2O)c(=O)n1` (stereo not given)?
A: T/C (dose: 0.19 mg/kg/injection, schedule: Q01DX009 (ip), vehicle: saline): 108 % of control; T/C (dose: 0.38 mg/kg/injection, schedule: Q01DX005 (ip), vehicle: water): 114 % of control; T/C (dose: 0.38 mg/kg/injection, schedule: Q01DX009 (ip), vehicle: saline): 120 % of control; T/C (dose: 0.5 mg/kg/injection, schedule: Q01DX009 (ip), vehicle: saline): 153 % of control; T/C (dose: 0.5 mg/kg/injection, schedule: Q03HX024 (ip), vehicle: saline): 160 % of control; T/C (dose: 0.62 mg/kg/injection, schedule: Q04DX003 (ip), vehicle: saline): 118 % of control and 122 % of control; T/C (dose: 0.75 mg/kg/injection, schedule: Q01DX005 (ip), vehicle: water): 119 % of control; T/C (dose: 0.78 mg/kg/injection, schedule: Q01DX009 (ip), vehicle: saline): 158 % of control and 161 % of control and 166 % of control; T/C (dose: 1.0 mg/kg/injection, schedule: Q01DX005 (ip), vehicle: saline): 152 % of control; T/C (dose: 1.0 mg/kg/injection, schedule: Q01DX009 (ip), vehicle: saline): 154 % of control and 164 % of control and 173 % of control; T/C (dose: 1.0 mg/kg/injection, schedule: Q03HX024 (ip), vehicle: saline): 204 % of control; T/C (dose: 1.25 mg/kg/injection, schedule: Q04DX003 (ip), vehicle: saline): 101 % of control; T/C (dose: 1.5 mg/kg/injection, schedule: Q01DX005 (ip), vehicle: saline): 178 % of control; T/C (dose: 1.5 mg/kg/injection, schedule: Q01DX005 (ip), vehicle: water): 159 % of control and 166 % of control; T/C (dose: 1.56 mg/kg/injection, schedule: Q01DX009 (ip), vehicle: saline): 207 % of control and 208 % of control and 226 % of control; T/C (dose: 1.56 mg/kg/injection, schedule: Q01DX009 (oral), vehicle: saline): 114 % of control; T/C (dose: 1.56 mg/kg/injection, schedule: Q04DX003 (ip), vehicle: saline): 105 % of control and 111 % of control; T/C (dose: 2.0 mg/kg/injection, schedule: Q01DX005 (ip), vehicle: water): 184 % of control and 203 % of control; T/C (dose: 2.0 mg/kg/injection, schedule: Q01DX009 (ip), vehicle: saline): 190 % of control and 193 % of control and 229 % of control; T/C (dose: 2.0 mg/kg/injection, schedule: Q03HX024 (ip), vehicle: saline): 269 % of control; T/C (dose: 2.0 mg/kg/injection, schedule: Q04DX003 (ip), vehicle: saline): 123 % of control; T/C (dose: 2.5 mg/kg/injection, schedule: Q04DX003 (ip), vehicle: saline): 110 % of control; T/C (dose: 2.5 mg/kg/injection, schedule: Q06HX012 (ip), vehicle: saline): 166 % of control and 190 % of control; T/C (dose: 3.0 mg/kg/injection, schedule: Q01DX005 (ip), vehicle: saline): 232 % of control; T/C (dose: 3.0 mg/kg/injection, schedule: Q01DX005 (ip), vehicle: water): 173 % of control and 227 % of control and 235 % of control; T/C (dose: 3.12 mg/kg/injection, schedule: Q01DX009 (ip), vehicle: saline): 212 % of control and 294 % of control; T/C (dose: 3.12 mg/kg/injection, schedule: Q04DX003 (ip), vehicle: saline): 159 % of control; T/C (dose: 3.13 mg/kg/injection, schedule: Q01DX009 (ip), vehicle: saline): 272 % of control; T/C (dose: 3.4 mg/kg/injection, schedule: Q01DX009 (ip), vehicle: saline): 266 % of control and 335 % of control; T/C (dose: 4.0 mg/kg/injection, schedule: Q01DX005 (ip), vehicle: water): 254 % of control and 272 % of control; T/C (dose: 4.0 mg/kg/injection, schedule: Q01DX009 (ip), vehicle: saline): 253 % of control and 276 % of control and 281 % of control; T/C (dose: 4.0 mg/kg/injection, schedule: Q04DX003 (ip), vehicle: saline): 151 % of control; T/C (dose: 5.0 mg/kg/injection, schedule: Q01DX009 (ip), vehicle: saline): 211 % of control and 364 % of control; T/C (dose: 5.0 mg/kg/injection, schedule: Q04DX003 (ip), vehicle: saline): 104 % of control; T/C (dose: 5.0 mg/kg/injection, schedule: Q06HX012 (ip), vehicle: saline): 226 % of control and 235 % of control; T/C (dose: 6.0 mg/kg/injection, schedule: Q01DX005 (ip), vehicle: saline): 195 % of control; T/C (dose: 6.0 mg/kg/injection, schedule: Q01DX005 (ip), vehicle: water): 276 % of control and 308 % of control; T/C (dose: 6.25 mg/kg/injection, schedule: Q04DX003 (ip), vehicle: saline): 161 % of control; T/C (dose: 7.5 mg/kg/injection, schedule: Q04DX003 (ip), vehicle: saline): 168 % of control; T/C (dose: 8.0 mg/kg/injection, schedule: Q01DX009 (ip), vehicle: saline): 119 % of control and 209 % of control and 102 % of control; T/C (dose: 8.0 mg/kg/injection, schedule: Q04DX003 (ip), vehicle: saline): 170 % of control; T/C (dose: 10.0 mg/kg/injection, schedule: Q06HX012 (ip), vehicle: saline): 108 % of control and 109 % of control; T/C (dose: 12.0 mg/kg/injection, schedule: Q01DX005 (ip), vehicle: saline): 209 % of control; T/C (dose: 12.0 mg/kg/injection, schedule: Q01DX005 (ip), vehicle: water): 90 % of control; T/C (dose: 12.5 mg/kg/injection, schedule: Q01DX009 (oral), vehicle: saline): 225 % of control; T/C (dose: 12.5 mg/kg/injection, schedule: Q04DX003 (ip), vehicle: saline): 225 % of control; T/C (dose: 15.0 mg/kg/injection, schedule: Q04DX003 (ip), vehicle: saline): 224 % of control; T/C (dose: 16.0 mg/kg/injection, schedule: Q04DX003 (ip), vehicle: saline): 220 % of control; T/C (dose: 25.0 mg/kg/injection, schedule: Q01DX001 (ip), vehicle: saline): 158 % of control; T/C (dose: 25.0 mg/kg/injection, schedule: Q01DX009 (oral), vehicle: saline): 121 % of control and 124 % of control; T/C (dose: 25.0 mg/kg/injection, schedule: Q04DX003 (ip), vehicle: saline): 120 % of control; T/C (dose: 30.0 mg/kg/injection, schedule: Q04DX003 (ip), vehicle: saline): 156 % of control; T/C (dose: 32.0 mg/kg/injection, schedule: Q04DX003 (ip), vehicle: saline): 219 % of control; T/C (dose: 50.0 mg/kg/injection, schedule: Q01DX001 (ip), vehicle: saline): 173 % of control and 175 % of control; T/C (dose: 60.0 mg/kg/injection, schedule: Q04DX003 (ip), vehicle: saline): 110 % of control
